1 compound from PubChem BioAssay AID330 (DTP/NCI, 2004) can be followed below.

The test has as its system P388 leukemia ip, CD2F1 mice, survival T/C. The experiment in a line: NCI In Vivo Anticancer Drug Screen. Data for tumor model P388 Leukemia (intraperitoneal) in CD2F1 (CDF1) mice. As to conditions: endpoint: median survival time, schedule: Q04DX003 (ip), vehicle: water, higher = longer survival. The protocol:
The antitumor activity of compounds was measured in mice bearing transplantable tumors. Survival or tumor size were measured and the results are expressed as the measurement made in the treated group (T) divided by the measurement made in the vehicle treated control group (C). The tumor model used in this assay is P388 Leukemia (intraperitoneal) in CD2F1 (CDF1) mice

Each structure is given as a SMILES string. Values joined by “and” are separate entries in the source; they are usually repeats but may differ in a detail not shown here. Equal entries are not always repeated. This continues a long series; more values of the same kind are listed elsewhere. Toxic doses and inconclusive results are not listed.

With `COc1cccc2c1C(=O)c1c(O)c3c(c(O)c1C2=O)CC(O)(C(C)=O)CC3OC1CC(N)C(O)C(C)O1` (stereo not drawn), the T/C is 118 % of control (dose: 0.38 mg/kg/injection); 118 % of control and 123 % of control (dose: 0.75 mg/kg/injection); 121 % of control and 117 % of control and 120 % of control (dose: 1.5 mg/kg/injection); 91 % of control and 111 % of control and 108 % of control (dose: 3.13 mg/kg/injection); 118 % of control (dose: 6.0 mg/kg/injection); 110 % of control and 124 % of control and 112 % of control (dose: 6.25 mg/kg/injection). In addition, the T/C (dose: 12.0 mg/kg/injection) was 88 % of control and 118 % of control; the T/C (dose: 12.5 mg/kg/injection) is 110 % of control and 120 % of control and 112 % of control; the T/C (dose: 24.0 mg/kg/injection) is 90 % of control; the T/C (dose: 25.0 mg/kg/injection) was 115 % of control and 110 % of control; the T/C (dose: 50.0 mg/kg/injection) is 110 % of control and 102 % of control; the T/C (dose: 175.0 mg/kg/injection) was 163 % of control. For the same compound, for the setting “dose: 350.0 mg/kg/injection”, the T/C is 94 % of control.
